Target: the molecule itself
Test: SEC

B1: full-length GAS2 (GAS2-FL ([…])) (natural protein)
chain: not shown
stoichiometry N: 2

Reference: paper doi:10.1101/2024.08.19.608523 (bioRxiv, 2024)
